Reference: paper PMC4336329 (PLoS ONE, 2015)
Hit rate of the full screen: of about 310,000 compounds, about 14,000 (4.5%) showed an effect of 50% or more. Effects have a minus sign here. The list shows a part of the results.

Each compound was assayed against human ether-à-go-go-related gene (hERG) potassium channel (human, UniProt Q12809) (assay: primary screen, population patch clamp on CHO cells stably expressing hERG).
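Further: peak tail current of the secondary pulse compared with the same well before compound.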

Sequence of human ether-à-go-go-related gene (hERG) potassium channel (Q12809 whole entry, looked up): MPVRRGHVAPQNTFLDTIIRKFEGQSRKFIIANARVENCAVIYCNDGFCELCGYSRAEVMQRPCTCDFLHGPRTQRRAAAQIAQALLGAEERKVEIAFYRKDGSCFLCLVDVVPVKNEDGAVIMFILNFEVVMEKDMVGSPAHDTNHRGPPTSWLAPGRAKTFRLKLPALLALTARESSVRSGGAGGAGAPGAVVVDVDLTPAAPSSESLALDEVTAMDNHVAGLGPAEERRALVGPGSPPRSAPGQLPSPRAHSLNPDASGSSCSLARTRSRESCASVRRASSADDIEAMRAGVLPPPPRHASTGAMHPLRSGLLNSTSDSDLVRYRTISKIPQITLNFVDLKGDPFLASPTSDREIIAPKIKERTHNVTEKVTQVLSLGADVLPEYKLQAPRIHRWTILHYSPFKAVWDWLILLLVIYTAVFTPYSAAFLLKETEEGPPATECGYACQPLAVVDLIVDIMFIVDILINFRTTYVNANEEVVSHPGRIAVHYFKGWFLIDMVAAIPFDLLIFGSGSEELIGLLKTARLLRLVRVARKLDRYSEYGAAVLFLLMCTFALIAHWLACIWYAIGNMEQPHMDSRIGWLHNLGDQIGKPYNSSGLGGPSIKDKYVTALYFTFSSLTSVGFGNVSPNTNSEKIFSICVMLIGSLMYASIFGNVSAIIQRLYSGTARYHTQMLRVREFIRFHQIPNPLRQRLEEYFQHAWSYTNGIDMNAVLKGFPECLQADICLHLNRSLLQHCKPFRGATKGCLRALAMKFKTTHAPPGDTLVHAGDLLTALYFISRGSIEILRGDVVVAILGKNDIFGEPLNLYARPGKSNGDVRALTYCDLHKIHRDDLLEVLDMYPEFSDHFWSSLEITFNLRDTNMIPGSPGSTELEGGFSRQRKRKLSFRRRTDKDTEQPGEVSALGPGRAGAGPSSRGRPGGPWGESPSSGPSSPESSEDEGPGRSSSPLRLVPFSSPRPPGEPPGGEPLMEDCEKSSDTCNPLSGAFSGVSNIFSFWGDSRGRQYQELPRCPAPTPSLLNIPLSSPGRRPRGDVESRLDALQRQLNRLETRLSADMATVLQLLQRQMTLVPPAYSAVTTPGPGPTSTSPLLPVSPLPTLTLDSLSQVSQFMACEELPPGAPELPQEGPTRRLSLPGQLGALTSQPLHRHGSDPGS

| Compound | hERG current change (%, negative = inhibition) at 10uM [%] |
| --- | --- |
| CC(Sc1nnc2ccccn12)C(=O)Nc1ncc(Cl)cc1Cl (stereo not shown) | 1.17 |
| COC(=O)Cn1cnc2c(nnn2-c2ccc(OC)cc2)c1=O | 8.87 |
| Cc1ccc(N2C(=O)c3ccc(C(=O)N4CCN(c5cccc(C)c5C)CC4)cc3C2=O)cc1 | -4.83 |
| O=C(NC1C2CC3CC(C2)CC1C3)c1ccc2c(c1)OCO2 (stereo not shown) | -5.92 |
| Cl.O[C@@H]1CCCC[C@H]1N1CCC(c2ccccc2)CC1 | 6.07 |
| CCOc1ccc(S(=O)(=O)N(C)CC(=O)N2CCN(CC)CC2)cc1 | 6.16 |
| O=C(N/N=C/c1coc2ccccc2c1=O)c1cn(-c2ccccc2)nc1-c1ccccc1 | 8.99 |
| CN(C)CCN1C(=O)C(=O)/C(=C(/O)c2ccc3c(c2)OCCO3)C1c1ccccn1 (stereo not shown) | 18.4 |
| CC(C)CN1C(=O)NC2(CCCc3ccccc32)C1=O (stereo not shown) | -4.12 |
| COc1ccc(NC(=O)C(c2ccc(OC)cc2)N(C)C(=O)CC2NC(=O)NC2=O)cc1 (stereo not shown) | 12.6 |
| Cc1cc(C)c(S(=O)(=O)N2CCOC2CNC(=O)C(=O)NCCCN2CCOCC2)c(C)c1 (stereo not shown) | 1.05 |
| Cc1noc(C)c1COC(=O)c1cccc(S(=O)(=O)N2CCCCCC2)c1 | -25.8 |
| COc1ccc(NC(=O)CN2C(=O)c3ccccc3S2(=O)=O)cc1OC | 14.6 |
| NC(=S)N/N=C/c1coc2ccc(O)cc2c1=O | -27.6 |
| CCOC(=O)CSc1nc2cc3c(cc2cc1C)OCO3 | 4.81 |
| CC(=O)c1cccc(NC(=O)Cn2cnc(S(=O)(=O)N3CCCCC3)c2)c1 | 12 |
| O=C(CSc1ccc(Cl)cc1)Nc1cccc(NC(=O)c2ccco2)c1 | -10.1 |
| O=C1N=C(N2CCCCC2)S/C1=C\c1ccccc1F | -15.1 |
| Cc1noc(C)c1S(=O)(=O)Nc1cccc(C(F)(F)F)c1 | 8.7 |
| COc1cccc(C(=O)N2C[C@H]3C[C@@H](C2)c2cccc(=O)n2C3)c1 | -6.2 |
| CC(=O)Nc1cccc(NC(=O)COC(=O)CO/N=C(\C)c2ccc3c(c2)OCO3)c1 | 22.3 |
| COC(=O)c1cc(Cl)cc2c(C)c(C3(O)CCCCC3)[nH]c12 | 15 |

| Compound | hERG current change (%, negative = inhibition) at 10uM [%] |
| --- | --- |
| C/C(=N/NC(=O)CNC(=O)C(c1ccccc1)c1ccccc1)c1ccco1 | 12.9 |
| Nn1c(SCC(=O)NCCC2=CCCCC2)nnc1C(F)(F)F | -4.61 |
| O=C(N/N=C/c1cc(Br)ccc1O)C(=O)Nc1ccccc1OC(F)(F)C(F)F | -0.00182 |
| Cc1ccc(NC(=S)NNc2ccc([N+](=O)[O-])cc2S(=O)(=O)Nc2ccccc2C(=O)O)cc1C | 22 |
| Cc1ccc(S(=O)(=O)N(C)CCCC(=O)N2CCN(c3ccccn3)CC2)cc1.[O-][Cl+3]([O-])([O-])O | -46.7 |
| CCCCN(CCCC)c1cn[nH]c(=O)c1Cl | -8.25 |
| O=C(COC(=O)c1ccc(F)cc1Cl)Nc1cccc(S(=O)(=O)N2CCOCC2)c1 | -42.4 |
| Br.O=C(CN1C2=NCCCN2c2ccccc21)c1ccc([N+](=O)[O-])cc1 | -75.1 |
| CNc1ccc2oc(C[C@H]3O[C@@]4(CC[C@H]3C)O[C@H]([C@H](C)C(=O)c3ccc[nH]3)[C@H](C)C[C@H]4C)nc2c1C(=O)O | 4.8 |
| O=C(ONC1=NCCCCC1)c1ccc([N+](=O)[O-])cc1 | -5.87 |
| CC(=O)c1cccc(Nc2ncnc3ccc(Br)cc23)c1 | -20.4 |
| CSc1ccc(S(=O)(=O)N2CCCC2)cc1 | 9.36 |
| COc1cc2c(cc1OC)C(C)N(C(=O)c1c(C)noc1C)CC2 (stereo not shown) | 14.2 |
| O=C(Nc1ccc(S(=O)(=O)NC2=NCCCCC2)cc1)c1cc(S(=O)(=O)N2CCOCC2)ccc1F | 5.46 |
| O=C(Nc1cccc2nsnc12)C1CC(=O)N(c2ccccc2)C1 (stereo not shown) | -4.16 |
| CCN(CC)c1ccc(/C=N/Nc2ccccc2)c(O)c1 | -0.389 |
| Cc1cc(NC(=O)CSc2nc3ccccc3n2CC(=O)N2CC(C)CC(C)C2)no1 (stereo not shown) | 9.55 |
| Cc1c(C)[n+](=O)c(-c2ccc(Br)cc2)c(C)n1[O-] | 13.1 |
| CCCCCn1c(=O)c(F)cn(Cc2ccc(OC)c([N+](=O)[O-])c2)c1=O | -56.6 |
| O=C(O)C(=O)O.O=[N+]([O-])c1ccccc1CN1CCN(Cc2c[nH]c3ccccc23)CC1 | -24.2 |
| CNC(=O)CSc1nccn1Cc1ccc(Cl)cc1 | -64.9 |
| Cl.c1cncc(CNC2CCCC2)c1 | 17.5 |

| Compound | hERG current change (%, negative = inhibition) at 10uM [%] |
| --- | --- |
| CN1C(=O)N(C)C2CC1N(C)C(=O)N2C | 1.84 |
| Cc1nc2ccccn2c1C(=O)NCCCN1CCOCC1 | 11.4 |
| Cc1ccc(C(=O)OC2OC(=O)C(Cl)=C2N2CCOCC2)cc1 (stereo not shown) | -7.17 |
| CC(C)[C@H](NC(=O)N1c2ccccc2NC(=O)[C@@H]1C(C)C)C(=O)N1CCC[C@H]1C(=O)O | 18.8 |
| O=C(N/N=C/c1ccccn1)c1ccc([N+](=O)[O-])cc1 | 48 |
| COc1ccc([N+](=O)[O-])cc1NC(=O)COC(=O)c1ccccn1 | 4 |
| Cc1cc(C)c(NC(=O)CSc2nnc(-c3ccncc3)n2Cc2ccco2)c(Cl)c1 | -52.7 |
| O=C(Oc1ccnc2cc(Cl)ccc12)N1CCCCCC1 | -23 |
| CCCn1c(=S)[nH]c2cc(C(=O)N3CCN(C(=O)OCC)CC3)ccc2c1=O | -6.49 |
| COC(=O)c1ccccc1NC(=O)c1ccc2nccnc2c1 | 12.6 |
| CN1CC(c2ccccc2)C(c2ccc(Cl)cc2)=N1 (stereo not shown) | 1.66 |
| CN(C(=O)c1ccncc1)c1nnc(-c2ccccn2)s1 | 1.22 |
| Cc1ccc(NC(=S)NCc2ccccn2)cc1 | 8.8 |
| CCC1=NN(C(=O)C(=O)Nc2ccccc2OC)C(O)(C(F)(F)F)C1 (stereo not shown) | 24.4 |
| Cc1ccc(N(Cc2cc3ccc(C)cc3[nH]c2=O)C(=O)c2cccs2)cc1 | 1.3 |
| O=C(Nc1cccc(Cl)c1)c1ccc(S(=O)(=O)NCC2CCCO2)cc1 (stereo not shown) | -7.31 |
| CC(=C1C2C=CC1C1C(=O)NC(=O)C21)c1ccccc1 (stereo not shown) | 2.05 |
| CC(=O)NC(C)c1nc2ccccc2n1CC(=O)NC(C)CCc1ccccc1 (stereo not shown) | 8.74 |
| Clc1ccc2c(c1)C1OCCC1C(c1ccco1)N2 (stereo not shown) | -16.2 |
| CC(=O)c1ccc(S(=O)(=O)N(C)CCCC(=O)N(C)Cc2ccccc2F)cc1 | -35 |
| C=CCNC(=O)/C(C#N)=C/c1cn(-c2ccccc2)nc1-c1ccc(OC)c([N+](=O)[O-])c1 | 0.277 |
| COCc1cc(C)nc(Oc2ccccc2)c1C#N | -2.11 |

| Compound | hERG current change (%, negative = inhibition) at 10uM [%] |
| --- | --- |
| O=C(c1c[nH]c2ccccc12)C(Cl)c1ccccc1 (stereo not shown) | 13.9 |
| C=CCOc1nc2c(c(=O)n(Cc3ccc(Cl)cc3)c(=O)n2C)n1C | -2.66 |
| CC(=O)c1ccc(NC(=O)CCC(=O)OCC(F)(F)C(F)F)cc1 | 7.18 |
| Cc1cc(C)c(NC(=O)COC(=O)C2=COCCO2)c(Cl)c1 | 12.8 |
| O=C(O)CSCc1ccc(Cl)cc1 | 8.76 |
| Clc1ccc(-c2nnc(-c3ccco3)o2)cc1 | 4.59 |
| COc1ccc(-c2csc(NCc3ccco3)n2)cc1C | 13.5 |
| CCC1(C(=O)OC)NC(c2ccco2)C2C(=O)N(c3ccccc3)C(=O)C21 (stereo not shown) | 4.8 |
| O=C(c1ccc(Cl)s1)N1CCN(C23CC4CC(CC(C4)C2)C3)CC1 | -12.7 |
| CCC/C(C)=C/c1ccc(CC)cn1 | 6.39 |
| CCCCCn1c(CN2CCN(C(=O)OCC)CC2)nc2c1c(=O)n(C)c(=O)n2C | -34.6 |
| CC(Nc1nc(=S)nc(Nc2ccc(F)cc2)[nH]1)c1ccccc1 (stereo not shown) | 22.8 |
| O=C(CS(=O)c1ccc(F)cc1)Nc1ccccc1Cl (stereo not shown) | 26.7 |
| C=CCN=C(C)C1=C(O)C(C)OC1=O (stereo not shown) | -1.78 |
| O=C(CN1CCCCC1)NNC(=O)c1ccc([N+](=O)[O-])cc1 | -9.32 |
| Cc1ccccc1-n1cc(C(=O)c2cc(Cl)ccc2O)cc(C#N)c1=O | 5.29 |
| O=C(OCC(=O)N1CCN(c2ccccc2)CC1)c1cc(Cl)ccc1[N+](=O)[O-] | -37 |
| Cc1cccc(Nc2nnc(SCC(=O)c3c(N)n(C4CC4)c(=O)[nH]c3=O)s2)c1C | 3.14 |
| N#CC1(P(=O)(c2ccccc2)c2ccccc2)CC1 | -12.9 |
| O=C(NCc1ccccc1C(F)(F)F)C1CC(O)CN1C(=O)Nc1ccccc1 (stereo not shown) | 18.5 |
| COc1ccc(/C=N\NC(=O)c2ccc([N+](=O)[O-])c(C)c2)cc1COc1ccccc1C(N)=O | 23.8 |
| CC(C)(C)NC(=O)C(c1ccccn1)N(C(=O)C1CSC(=O)C1)c1cccc(F)c1 (stereo not shown) | 13.1 |
